Test results taken from patent US20260232828A1, “LIGAND-CYTOTOXICITY DRUG CONJUGATES AND PHARMACEUTICAL USES THEREOF” (HANSOH BIO LLC, priority 2023, published 2026).

Experiments:
[1] = target: T1, human CDH17 His Tag (Homo sapiens, UniProt Q12864); assay: ELISA binding of hybridoma clones to human CDH17 protein; conditions: hybridoma supernatant; plate coated with 1 μg/ml antigen
T1 construct: His tag; purchased Sino biological 11360-H08H
Protocol: (§1) ELISA was performed using the DuoSet ELISA Ancillary Kit (R&D System, DY008). ELISA plates were coated with 1 μg/ml of human CDH17 His Tag (Sino biological, catalog number 11360-H08H), or BSA overnight. Excess unbound proteins were washed off by washing the plates three times with the wash buffer before blocking for 1 hour at room temperature. 100 μl CDH17 hybridoma supernatant was added in each well and incubated for 1 hour at room temperature. Excess unbound antibodies were washed off and 100 μl of 1:30000 diluted secondary antibody Goat anti-mouse IgG Fc-HRP (ab5870) was added to each well for another 1 hour. Plates were washed before the addition 50 μL of […] (color A and color B) according to manufacturer's protocol. The reactions were stopped using 25 μL of stop solution. Optical density at 450 nm of samples was measured by a microplate reader (PerkinElmer). All tested clones bound selectively to human CDH17 but not BSA.

[2] = target: BSA (Bos taurus, UniProt P02769); assay: ELISA binding of hybridoma clones to BSA (specificity control); conditions: hybridoma supernatant; plate coated with BSA
Protocol: as §1

[3] = system: CDH17 positive cell line AsPC1, GP2d and CDH17 negative cell line SW480; assay: Flow cytometry binding of hybridoma supernatants to CDH17 expressing cancer cells; design: species or system human; conditions: undiluted hybridoma supernatant, in words
Protocol: Hybridoma supernatants were subjected to binding tests on CDH17 positive cell line AsPC1 (ATCC, CRL-1682), GP2d (Creative bioarray, CSC-J9456), and CDH17 negative cell line SW480 (ATCC, CCL-228) using flow cytometry analysis. Briefly, 50 μL of cells in cell staining buffer (2×10^6 cells/mL) was mixed with 50 μL undiluted supernatants. The mixture was incubated on ice for 1 hour and then washed with ice-cold staining buffer twice. The cells were subsequently stained with 50 μL of PE labeled secondary antibody (1:250 dilution, Biolegend, Cat #405307) for 20 min. After washing by staining buffer and fixing by 4% PFA, cells were analyzed by flow cytometry.
A purified anti-human CDH17 antibody was used as a positive control (Sino Biological, Cat #11360-MM02). A purified mouse IgG1 antibody was used as isotype control (Biolegend, Cat #400102).

[4] = system: AsPC1 cells; assay: Indirect killing assay (cell internalization) of hybridoma supernatants; assay type: cell-based, human; conditions: hybridoma supernatant with Fab anti-mouse IgG Fc-MMAF 20 nM, in words
Protocol: Cell internalization activities of hybridoma supernatants were measured using an indirect killing assay in AsPC1 cells. The AsPC1 cells were seeded in 96 well plate at 8,000 cells/well with propidium iodide (abeam, Cat #ab14083) at 500 ng/mL and SPY650-DNA (Cytoskeleton, Inc., Cat #CYSC501) at 1:2000 dilution. Cells were incubated overnight at 37° C. in 5% CO2. The hybridoma supernatants from each hybridoma clone were diluted with hybridoma culture medium containing 500 ng/mL propidium iodide and 2000-fold diluted SPY650-DNA and mixed with Fab anti-mouse IgG Fc-MMAF conjugates with cleavable linker (Moradec, AM-202AF), then added to each well. The final concentrations of mouse IgG were roughly 10 nM, 3.33 nM, and 1.11 nM. The final concentration of the Fab anti-mouse IgG Fc-MMAF conjugates in each well was 20 nM. With the presence of secondary Fab-vc-MMAF, the internalized antibody/Fab-vc-MMAF conjugates complex will release the cytotoxic payload and kill the cells. Cytation5 (Agilent) was used to detect the viability of the cells in each well by imaging the plates every 8 h.
A purified anti-human CDH17 antibody was used as a positive control (Invitrogen, Cat #MA5-29135). A purified mouse IgG1 antibody was used as isotype control (Biolegend, Cat #400102).

Sequence of BSA (P02769 25-607): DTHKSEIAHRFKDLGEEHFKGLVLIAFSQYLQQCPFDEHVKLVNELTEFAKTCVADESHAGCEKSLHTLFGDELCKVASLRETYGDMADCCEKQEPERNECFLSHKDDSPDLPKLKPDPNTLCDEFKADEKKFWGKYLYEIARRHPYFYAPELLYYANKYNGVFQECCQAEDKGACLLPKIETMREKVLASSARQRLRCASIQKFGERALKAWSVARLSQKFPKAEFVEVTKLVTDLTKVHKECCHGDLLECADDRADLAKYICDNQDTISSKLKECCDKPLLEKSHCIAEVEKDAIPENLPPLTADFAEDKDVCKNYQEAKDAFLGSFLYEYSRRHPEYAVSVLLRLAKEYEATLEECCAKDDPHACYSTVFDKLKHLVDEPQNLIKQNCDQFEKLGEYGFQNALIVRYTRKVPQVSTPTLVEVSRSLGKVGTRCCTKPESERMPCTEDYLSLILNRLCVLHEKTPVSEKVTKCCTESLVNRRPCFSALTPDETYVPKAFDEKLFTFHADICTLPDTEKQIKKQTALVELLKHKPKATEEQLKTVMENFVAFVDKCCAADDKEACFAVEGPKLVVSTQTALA

Protein binding (human CDH17) [1] [OD450] | Protein binding (BSA) [2] [OD450] | Molecule | binding profile to CDH17 positive versus negative cells [3] | cell internalization activity [4]
1.7895 | 0.0399 | 1H10: anti-CDH17 antibody; SEQ ID NO: 77 (heavy chain) and 78 (light chain) (antibody, listed as Homo sapiens) heavy: QVQLVESGGGVVQPGRSLRLSCVASGFTFSSYGMHWVRQAPGKGLEWVTFIWYDGSNKNYADSVKGRFTISRDNSKNTLNLQMNSLRVEDTAVYYCARDRYSSGWDVFDYWGQGTLVTVSS[letters of human IgG1 constant region omitted] light: DIQMTQSPSSVSASVGDRVTITCRASQDISSWLAWYQQQPGKAPKLQIYAASSLQSGVPSRFSGSGSGTDFTLTISSLQPEDFATYYCQQAKSFPPTFGQGTKVEIKRTVAAPSVFIFPPSDEQLKSGTASVVCLLNNFYPREAKVQWKVDNALQSGNSQESVTEQDSKDSTYSLSSTLTLSKADYEKHKVYACEVTHQGLSSPVTKSFNRGEC | enhanced binding profile to AsPC1 cells and GP2d cells compared to SW480 cells | capable of internalizing into CDH17 positive cell line
1.6026 | 0.0431 | 15A4: anti-CDH17 antibody; SEQ ID NO 91 (heavy chain) and 92 (light chain) (antibody, listed as Homo sapiens) heavy: QVQLVESGGGVVQPGRSLRLSCAASGFNFSSYGMHWVRQAPGKGLEWVAFVWYDGSNQNYADSVKGRFTISRDNSNNTLYLQMNSLRAEDTAVYYCARDRYSSGWDVFDYWGQGTLVTVSS[letters of human IgG1 constant region omitted] light: DIQMTQSPSSVSASVGDRVTITCRASQGISSWLAWYQQKPGKAPKLLIFAASSLQSGVPSRFSGSGSGTGFTLTISSLQPEDFATYYCQQAKSFPPTFGQGTKVEIKRTVAAPSVFIFPPSDEQLKSGTASVVCLLNNFYPREAKVQWKVDNALQSGNSQESVTEQDSKDSTYSLSSTLTLSKADYEKHKVYACEVTHQGLSSPVTKSFNRGEC | enhanced binding profile to AsPC1 cells and GP2d cells compared to SW480 cells | capable of internalizing into CDH17 positive cell line
